The record followed here is PubChem BioAssay AID1745853 (National Center for Advancing Translational Sciences (NCATS), 2022).

The other results are listed elsewhere or left out. Shown are side measurements of this screen, not its main read-out; they come without a call.

Holding throughout (experiment): Primary Screen for Target Class Profiling of Small Molecule Inhibitors of Methyltransferases
For assay [1], the target named is Glycine N-methyltransferase (Homo sapiens) (UniProt Q14749). The settings on record: purified enzyme, MTase-Glo SAH luminescence; measured here: GNMT inhibition; at 40 µM; stronger effect = lower value. An excerpt:
(§1) PI: Matthew D. Hall Ph.D. and Quinlin M. Hanson Ph.D.
(§2) National Center for Advancing Translational Sciences (NCATS)
(§3) National Institute of Health (NIH), Rockville, MD
(§4) Target class profiling (TCP) is a chemical biology approach amenable to investigating understudied biological targets. TCP is achieved by developing a generalizable assay platform and applying it to screen a curated set of compound libraries against representative members of a target class. Small molecule methyltransferases (SMMTase) are a subclass of methyltransferase that act on metabolites to modulate signaling pathways, metabolize xenobiotics, or balance the available methyl pool. We screened four curated libraries totaling 27,574 unique compounds against the SMMTases nicotinamide N-methyltransferase (NNMT), phenylethanolamine N-methyltransferase (PNMT), histamine N-methyltransferase (HNMT), glycine N-methyltransferase (GNMT), catechol O-methyltransferase (COMT), and guanidinoacetate N-methyltransferase (GAMT). The data generated by this TCP can be leveraged for informed tool molecule development. For example, in the associated publication we identified a chemotype of HNMT-selective inhibitors. Additionally, we identified a putative SMMTase-selective inhibitor with potential as a tool molecule for studying broader methyltransferase biology.
(§5) High-through put screening assays were developed at the National Center for Advancing Translational Science (NCATS) for the enzymes NNMT, PNMT, HNMT, GNMT, COMT, and GAMT. Enzymatic activity was measured as a function of SAM cofactor conversion using the MTase Glo kit (Promega) for all enzymes. All assays were performed in 1536-well format with substrates and SAM concentrations at KM values. Enzyme concentration and assay timing were optimized for 10-20% SAM conversion. Initial screening of 27,574 compounds was done as single-point assays using the highest compound concentration (40 uM). […] These compounds were replated in 11-point dose response and assayed against NNMT, PNMT, HNMT, GNMT, COMT, GAMT, and a counter-assay. The IC50 and efficacy (maximal response) values were determined for each dose-response curve. These values are also accounted for in the area under the curve (AUC) values.
(§6) PROTOCOL TABLE (as described by Inglese J, Shamu CE and Guy RK. 2007)
(§7) SEQUENCE No. (e.g., 1, 2, 3, etc.); […] (e.g., Cells, Incubation, Reagent, etc.); VALUE; DESCRIPTION.
(§8) 1; Reagent; 2 uL; SMMTase Enzyme (2x) in reaction buffer, columns 1- 48.
(§9) 2; Reagent; 1 uL; SAM (4x) in reaction buffer, columns 1-48.
(§10) 3; Controls; 23 nL; DMSO in column 4; sinefungin in DMSO (0 uM - 40 uM) in 7-point 1:2 dilution series (n = 2) in column 2.
(§11) 4; Compounds; 23 nL; Columns 5-48.
(§12) 5; Reagent; 1 uL; Substrate (4x) in reaction buffer, columns 2-48.
(§13) 6; Time; 20-30 min; Incubation.
(§14) 7; Reagent; 1 uL; MTase-Glo reagent (5X), columns 1-48.
(§15) 8; Time; 30 min; Incubation.
(§16) 9; Reagent; 5 uL; MTase-Glo Detection reagent, columns 1-48.
(§17) 10; Time; 30 min; Incubation, luminescence evolution.
(§18) 11; Detection; Luminescence; ViewLux uHTS Microplate Imager (PerkinElmer).
(§19) NOTES (numbers refer to Sequence numbers above)
(§20) 1, 2, 5. White Medium Binding Greiner 1536-well plates (Cat #789175-F, Greiner Bio-One, Monroe, NC); Reaction buffer: 50 mM Tris, pH 8.0, 3 mM MgCl2, 1 mM EDTA, 50 mM NaCl, 1 mM DTT, and 0.1 mg/mL BSA. Evaporation was prevented by covering assay plates with metal lids containing holes to allow gas diffusion.
(§21) 1. Six SMMTase were profiled: HNMT, GNMT, PNMT, COMT, NNMT, GAMT
(§22) 5. The corresponding substrate was used for each enzyme: HNMT - 5.3 uM Histamine; GNMT - >500 uM Glycine; PNMT - 16.2 uM Norephinephrine; COMT - 13.7 uM Norephinephrine; NNMT - 3.8 uM Nicotinamide; GAMT - 2.5 uM Guanidinoacetate.6, 8, 10. Room temperature
(§23) 6. Final reaction conditions: 10 nM COMT, 5 uM SAM, 15 uM norepinephrine, 50 mM Tris, pH 8.0, 3 mM MgCl2, 1 mM EDTA, 50 mM NaCl, 1 mM DTT, and 0.1 mg/mL BSA; refer to tables 2 and S1 for specific timing.
8. […]

Assay [2] concerns the target Guanidinoacetate N-methyltransferase (Homo sapiens) (UniProt Q14353). The conditions noted are these: purified enzyme, MTase-Glo SAH luminescence; measured here: GAMT inhibition; at 40 µM; stronger effect = lower value.
Source text: as §1, §2, §3, §4, §5, §6, §7, §8, §9, §10, §11, §12, §13, §14, §15, §16, §17, §18, §19, §20, §21, §22, §23
8. […]

Assay [3] has as its target Histamine N-methyltransferase (Homo sapiens) (UniProt P50135). The conditions noted are these: purified enzyme, MTase-Glo SAH luminescence; measured here: HNMT inhibition; at 40 µM; stronger effect = lower value.
Source text: as §1, §2, §3, §4, §5, §6, §7, §8, §9, §10, §11, §12, §13, §14, §15, §16, §17, §18, §19, §20, §21, §22, §23
8. […]

In assay [4] the target is Nicotinamide N-methyltransferase (Homo sapiens) (UniProt P40261). The conditions noted are these: purified enzyme, MTase-Glo SAH luminescence; measured here: NNMT inhibition; at 40 µM; stronger effect = lower value.
Source text: as §1, §2, §3, §4, §5, §6, §7, §8, §9, §10, §11, §12, §13, §14, §15, §16, §17, §18, §19, §20, §21, §22, §23
8. […]

In assay [5] the target is Phenylethanolamine N-methyltransferase (Homo sapiens) (UniProt P11086). The settings on record: purified enzyme, MTase-Glo SAH luminescence; measured here: PNMT inhibition; at 40 µM; stronger effect = lower value.
Source text: as §1, §2, §3, §4, §5, §6, §7, §8, §9, §10, §11, §12, §13, §14, §15, §16, §17, §18, §19, §20, §21, §22, §23
8. […]
On the % scale 0 is the no-effect control and ±100 the full control effect.

On to `COc1ccc2cc3n(c2c1)CC(C)(C(=O)NC1CCCCCC1)N(CCN1CCCCC1C)C3=O` (stereo not given), for which the activity change, negative = inhibition was 6.09% in assay [1]; 0.586% in assay [2]; 7.53% in assay [3]; 4.62% in assay [4]; 2.16% in assay [5].
Take `Cc1ccc(CNC(=O)C2(C)Cn3cnc(C(=O)N4CCN(c5ccccc5)CC4)c3C(=O)N2C2CC2)cc1` (stereo not given): the activity change, negative = inhibition is -0.674% in assay [1]; -3.58% in assay [2]; 1.81% in assay [3]; -7.75% in assay [4]; -1.38% in assay [5].
Turning to `COCCNc1nc2c(-c3cccc(Br)c3)nnn2c2ccccc12`, the activity change, negative = inhibition in assay [1] was -6.17%; in assay [2] it was 1.68%; in assay [3], 1.82%; in assay [4] it was 4.52%; in assay [5], -4.04%.
In the same order, the values of `COc1ccc(CC(=O)Nc2ccc3ncnc(N4CCCC4)c3c2)c(Cl)c1` are -17.7%, -11.7%, -86.9%, -49.1% and -15.2%.
In the same order, the values of `CCOCCOC1CCN(S(=O)(=O)c2ccc(OC)cc2)CC1` are -4.66%, -5.59%, -4.07%, -7.32% and 0.705%.
In the same order, the values of `CCCN(CCc1ccsc1)C1CCc2c(O)cccc2C1` (stereo not given) are 3.15%, 7.29%, -8.84%, -8.12% and -0.813%.
Consider `CC1(c2noc(-c3cccnc3)n2)CCN(C(=O)CCC(=O)N2CC(=O)Nc3ccccc32)CC1`, for which the activity change, negative = inhibition in assay [1] is -0.77%; in assay [2] it was 3.6%; in assay [3] it was 3.26%; in assay [4], -6.41%; in assay [5], 2.21%.
In the same order, the values of `O=C(/C=C/c1ccccc1)OCC1=CC[C@@H]2C(C(=O)O)=CO[C@@H](O[C@@H]3O[C@H](CO)[C@@H](O)[C@H](O)[C@H]3O)[C@H]12` are 0.944%, -2.94%, 3.92%, -14.2% and 4.4%.
In the same order, the values of `CN1CCCCC1CCNC(=O)c1ccc(N2CCOCC2)nc1` (stereo not given) are 2.5%, 0.175%, -7.63%, 2.94% and 4.09%.
In the same order, the values of `C[C@]12CCC(=O)C=C1CC[C@@H]1[C@@H]2C(=O)C[C@@]2(C)[C@H]1CC[C@]2(O)C(=O)CO` are -10.8%, 1.53%, -2.02%, -7.57% and 4.73%.
For the compound `COCCCC/C(=N\OCCN)c1ccc(C(F)(F)F)cc1`, the activity change, negative = inhibition in assay [1] was 7.17%; in assay [2], 13.2%; in assay [3], 13.7%; in assay [4], -7.77%; in assay [5] it was 0.542%.
In the same order, the values of `CC1(O)CCC2C(C3C1CCC3(C)O)C2(C)C` (stereo not given) are 0.8%, 0.131%, 7.72%, -13.6% and 3.09%.
For `O=C(O)c1cccc(C2CCCN(C(=O)CCCn3ccnc3)C2)c1` (stereo not given), the activity change, negative = inhibition in assay [1] was -2.94%; in assay [2], -5.05%; in assay [3], -2.14%; in assay [4], -13.9%; in assay [5], 9.96%.
With `O=C(O)CNC(=O)CNC(=O)CNC(=O)CSC(=O)c1ccccc1`, the activity change, negative = inhibition in assay [1] is -3.9%; in assay [2], -3.27%; in assay [3], 8.91%; in assay [4] it was -11.6%; in assay [5], 1.52%.
In the same order, the values of `CC1(C=O)CCCC2(C)C1CCC13CC(CO)C(CCC12)C3` (stereo not given) are 2.65%, 2.93%, -0.118%, -16.8% and -2.54%.
Consider `C=C1C(=O)OC2/C=C(\C)CC/C=C(\C)CC(OC(C)=O)C12` (stereo not given), for which the activity change, negative = inhibition in assay [1] was -3.55%; in assay [2], -2.09%; in assay [3] it was 5.77%; in assay [4] it was -12.8%; in assay [5], -7.83%.
As for `C=C1C(=O)OC2C3=C(C)C(=O)CC3C(C)CC(O)C12` (stereo not given), the activity change, negative = inhibition in assay [1] was -4.05%; in assay [2] it was -7.86%; in assay [3], 4.47%; in assay [4], -19.8%; in assay [5] it was -7.22%.
With `COC(=O)[C@H]1CCCN1C(=O)[C@@H]1[C@@H](NC(=O)Nc2ccc(F)cc2F)CCN1C(=O)c1cccn1C`, the activity change, negative = inhibition in assay [1] was -3.57%; in assay [2] it was -10.2%; in assay [3] it was -0.431%; in assay [4], -14.8%; in assay [5], -8.52%.
In the same order, the values of `CC(=O)c1c(C)nn(CC(=O)NC(C)c2cnn(-c3ccccc3C)c2C)c1C` (stereo not given) are 0.804%, 1.93%, 2.75%, -2.37% and 9.18%.
